Source: publication PMC4402527
Residue numbers refer to the chain shown, from its start. Results are given in words; binding and its absence hold for the method and conditions named. For some assays here: Binding seen in cells or lysates may run through a third protein. Some binding calls cover weakened binding; strength is not graded here. Where a sequence is shown, tags or fusion partners need not be part of it.

Protein sequences, listed by entry. Tags and fused reporters are not part of them.
UniProt P20042: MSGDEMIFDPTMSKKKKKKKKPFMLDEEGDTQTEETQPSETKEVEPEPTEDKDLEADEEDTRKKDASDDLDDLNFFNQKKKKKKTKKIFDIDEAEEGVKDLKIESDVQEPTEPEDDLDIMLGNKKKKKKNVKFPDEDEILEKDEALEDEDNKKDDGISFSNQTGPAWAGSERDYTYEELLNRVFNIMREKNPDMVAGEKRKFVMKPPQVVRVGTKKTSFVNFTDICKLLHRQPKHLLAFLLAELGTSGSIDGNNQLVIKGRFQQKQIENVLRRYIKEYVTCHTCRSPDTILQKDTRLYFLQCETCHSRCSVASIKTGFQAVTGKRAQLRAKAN
UniProt P29562: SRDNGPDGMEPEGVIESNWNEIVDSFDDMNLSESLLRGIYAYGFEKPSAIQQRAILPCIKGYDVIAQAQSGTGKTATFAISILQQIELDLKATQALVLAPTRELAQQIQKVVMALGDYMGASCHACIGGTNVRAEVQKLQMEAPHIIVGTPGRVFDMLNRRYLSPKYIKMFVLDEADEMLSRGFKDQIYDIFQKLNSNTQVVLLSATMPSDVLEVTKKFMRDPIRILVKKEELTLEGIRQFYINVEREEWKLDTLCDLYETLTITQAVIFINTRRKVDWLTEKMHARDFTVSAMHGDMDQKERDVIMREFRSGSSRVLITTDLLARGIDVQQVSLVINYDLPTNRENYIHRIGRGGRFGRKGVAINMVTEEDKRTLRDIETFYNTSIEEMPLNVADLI
UniProt P60842: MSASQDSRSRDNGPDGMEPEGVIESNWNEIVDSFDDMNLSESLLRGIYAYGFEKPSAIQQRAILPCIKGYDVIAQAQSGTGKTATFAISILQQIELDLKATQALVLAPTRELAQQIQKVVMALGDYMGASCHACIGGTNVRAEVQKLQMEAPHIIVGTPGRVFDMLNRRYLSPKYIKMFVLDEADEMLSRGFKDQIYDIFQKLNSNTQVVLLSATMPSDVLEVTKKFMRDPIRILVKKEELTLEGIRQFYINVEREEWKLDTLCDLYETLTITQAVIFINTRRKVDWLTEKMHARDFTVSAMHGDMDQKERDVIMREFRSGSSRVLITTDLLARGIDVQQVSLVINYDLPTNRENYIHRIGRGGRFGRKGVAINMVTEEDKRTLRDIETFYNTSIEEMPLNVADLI
UniProt P41035: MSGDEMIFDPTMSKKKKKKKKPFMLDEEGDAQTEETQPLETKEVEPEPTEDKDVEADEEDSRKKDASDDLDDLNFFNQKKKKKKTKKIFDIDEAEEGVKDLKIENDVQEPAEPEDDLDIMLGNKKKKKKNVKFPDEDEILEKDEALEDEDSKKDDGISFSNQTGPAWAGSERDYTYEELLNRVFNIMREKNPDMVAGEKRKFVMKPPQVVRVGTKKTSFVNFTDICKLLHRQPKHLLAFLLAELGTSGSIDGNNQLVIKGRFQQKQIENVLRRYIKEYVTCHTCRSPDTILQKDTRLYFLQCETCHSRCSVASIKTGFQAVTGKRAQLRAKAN

Tests used:
[1] = target: T1, Flag-DAP5 (wild type) (human) (UniProt P78344); experiment: co-IP; HEK293T transfected 24 h with Flag-tagged DAP5 constructs; lysis in buffer B (20 mM HEPES-KOH pH 7.6, 100 mM KCl, 0.5 mM EDTA, 0.4% NP-40, 20% glycerol); anti-Flag-conjugated beads, elution with Flag peptide; western blot of endogenous factors
T1 sequence: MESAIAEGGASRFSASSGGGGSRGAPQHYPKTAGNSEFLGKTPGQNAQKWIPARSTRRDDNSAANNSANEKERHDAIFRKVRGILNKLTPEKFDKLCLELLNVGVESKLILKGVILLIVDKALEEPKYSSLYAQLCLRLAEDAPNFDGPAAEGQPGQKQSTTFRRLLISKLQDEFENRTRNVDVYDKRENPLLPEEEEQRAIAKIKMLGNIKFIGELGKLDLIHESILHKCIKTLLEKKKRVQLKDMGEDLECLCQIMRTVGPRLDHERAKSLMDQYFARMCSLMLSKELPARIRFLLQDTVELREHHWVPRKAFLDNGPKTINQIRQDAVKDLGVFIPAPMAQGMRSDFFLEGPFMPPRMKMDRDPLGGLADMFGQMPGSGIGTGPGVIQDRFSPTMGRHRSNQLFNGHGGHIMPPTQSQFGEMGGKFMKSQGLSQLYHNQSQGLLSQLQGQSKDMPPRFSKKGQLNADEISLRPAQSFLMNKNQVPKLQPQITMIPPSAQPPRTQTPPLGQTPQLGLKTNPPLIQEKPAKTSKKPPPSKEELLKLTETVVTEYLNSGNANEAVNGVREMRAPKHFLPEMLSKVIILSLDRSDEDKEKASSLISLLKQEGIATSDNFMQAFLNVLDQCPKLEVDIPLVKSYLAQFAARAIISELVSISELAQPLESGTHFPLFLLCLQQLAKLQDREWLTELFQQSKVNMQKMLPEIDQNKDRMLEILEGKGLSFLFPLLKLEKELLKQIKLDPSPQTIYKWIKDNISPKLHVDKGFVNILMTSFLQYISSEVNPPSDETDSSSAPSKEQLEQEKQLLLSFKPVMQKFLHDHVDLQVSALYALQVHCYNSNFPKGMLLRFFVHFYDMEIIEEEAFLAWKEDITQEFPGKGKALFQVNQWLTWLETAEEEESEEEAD

Flag-DAP5 N86A (human) = target: T2, Flag-DAP5 N86A (human) (UniProt P78344); experiment: as above
T2 sequence: T1 sequence with N86A

[2] = target: T3, His-DAP5 N86A mutant (human) (UniProt P78344); experiment: pull-down; 600 ng His-DAP5 added to 30 μl nuclease treated RRL, 10 min at 30°C; Ni-NTA beads 3 h at 4°C in IP buffer (25 mM HEPES-KOH pH 7.3, 20 mM KCl, 75 mM KOAc, 2 mM MgCl2, 10 mM imidazole, 0.3% CHAPS); western blot; only the target purified
T3 sequence: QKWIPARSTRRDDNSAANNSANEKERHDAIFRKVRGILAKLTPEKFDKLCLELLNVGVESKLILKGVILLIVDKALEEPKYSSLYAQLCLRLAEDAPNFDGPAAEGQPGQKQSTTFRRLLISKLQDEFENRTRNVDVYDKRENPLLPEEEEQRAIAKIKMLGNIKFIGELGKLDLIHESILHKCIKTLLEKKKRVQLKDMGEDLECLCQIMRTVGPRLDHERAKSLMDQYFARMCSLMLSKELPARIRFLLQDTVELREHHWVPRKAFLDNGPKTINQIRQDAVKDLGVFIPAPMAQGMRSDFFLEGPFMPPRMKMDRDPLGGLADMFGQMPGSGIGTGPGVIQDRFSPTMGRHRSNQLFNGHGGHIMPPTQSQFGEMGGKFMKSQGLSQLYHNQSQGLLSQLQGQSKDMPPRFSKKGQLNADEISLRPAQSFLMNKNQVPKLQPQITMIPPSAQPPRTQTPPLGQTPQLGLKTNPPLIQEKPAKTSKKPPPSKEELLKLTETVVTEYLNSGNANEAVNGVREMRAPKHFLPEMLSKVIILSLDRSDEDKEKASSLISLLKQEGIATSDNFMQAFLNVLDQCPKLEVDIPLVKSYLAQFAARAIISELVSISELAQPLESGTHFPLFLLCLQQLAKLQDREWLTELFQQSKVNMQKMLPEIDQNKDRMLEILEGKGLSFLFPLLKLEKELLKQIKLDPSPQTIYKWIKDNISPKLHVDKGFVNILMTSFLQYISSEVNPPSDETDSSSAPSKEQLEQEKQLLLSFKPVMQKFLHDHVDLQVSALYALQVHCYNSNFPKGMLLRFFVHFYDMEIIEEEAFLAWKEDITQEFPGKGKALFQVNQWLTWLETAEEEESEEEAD

[3] = target: T4, His-DAP5 WT (48-907) (human) (UniProt P78344); experiment: as above
T4 sequence: T3 sequence with A39N

[4] = target: T4, His-DAP5 WT (48-907) (human); experiment: pull-down; 100 μg His-DAP5 with 25 μl Ni-NTA Superflow resin and 100 μg purified eIF4AI (~2-fold molar excess), 30 min on ice, 25 mM Tris-HCl pH 8.0, 150 mM NaCl, 60 mM imidazole, 1 mM DTT, 5% glycerol; Coomassie staining; both purified
[5] = target: T3, His-DAP5 N86A mutant (human); experiment: condition: 100 μg eIF4AI (~2-fold molar excess) in 100 μl; pull-down; 100 μg His-DAP5 with 25 μl Ni-NTA Superflow resin and 100 μg purified eIF4AI (~2-fold molar excess), 30 min on ice, 25 mM Tris-HCl pH 8.0, 150 mM NaCl, 60 mM imidazole, 1 mM DTT, 5% glycerol; Coomassie staining; both purified

binding [2] | binding [3] | Substance | also measured
 |  | eIF2β (from UniProt P20042 1-333) | binding [1]: binds; binding (Flag-DAP5 N86A (human)): binds
no binding | binds | eIF4AI of rabbit reticulocyte lysate (from UniProt P29562 1-398) | 
 |  | purified eIF4AI (from UniProt P60842 1-406) | binding [4]: binds; binding [5]: no binding
binds | binds | eIF2β of rabbit reticulocyte lysate (from UniProt P41035 1-333) | 
